Source: the RNAGym collection of RNA variant scans (doi:10.1093/nar/gkz1192)
The source gives no read counts; variants with many changes may rest on few reads.

B1: CPEB3 Ribozyme (parent)
chain: UAACAGGGGGCCACAGCAGAAGCGUUCACGUCGCAGCCCCUGUCAGAUUCUGGUGAAUCUGCGAAUUCUGCUGUAUAUCUC

Variants of: B1
Assay: self-cleavage, relative activity (ratio to wild type); higher = more cleavage; in vitro, sequencing
Summary of the method: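 CPEB3 self-cleaving ribozyme mutant libraries were made by rounds of error-prone PCR, barcoded, and transcribed in vitro with T7 RNA polymerase for 5 hours at 37°C. Cleavage occurred during transcription and a 15 min DNase I step before EDTA stop. RNAs were reverse transcribed with template switching and Illumina-sequenced, with DNA sequencing mapping barcodes to variants. Relative activity is the variant's cleaved/total read fraction divided by wild type's (minimum 5 reads), averaged across three batches.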

Variant | self-cleavage
UGGCAGGGGGCCACAGCAGAAGCGUUCACGUCGCUGCCCCUGUCAGAUUCUGGUGAAUCUGCGAGUUCUGCUGUAUAUCUC [A2G A3G A35U A65G] | 0.13
UGACUGGGGGCCACAGCAGAAGCGUUCAUGACGCAGCCCCUGUCAGAUUCUGGUGAAUCUGCGAAUUCUGCUGUAUAUCUC [A2G A5U C29U U31A] | 0.22
UGACAGGGGGCCGCUGCAGUAGCGUUCACGUCGCAGCCCCUGUCAGAUUCUGGCGAAUCUGCGAAUUCUGCUGUAUACCUC [A2G A13G A15U A20U U54C U78C] | 0.07
UCACAGGGGGCCACAGCAGAAGCGUUCACGUCGCAGCCCCUGUCAGAUUCUGGUGAAUCAGCGAAUUCCGCUGUAUAUCUC [A2C U60A U69C] | 0.18
UCACAGGGGGCCACAGCAGAAGCGUUCACGUCGCAGCCCCUGUCGGAUUCUGGUGAAUCUGCGAAUUCUGCUGCAUAUCCC [A2C A45G U74C U80C] | 0.84
UCACAGGGGGCCACAGCAGAAGCGUUCACGUCGCUGCCCCUGUCGGAUUCUGGUGAAUCUGCGAAUUCUGCAGUAUAUCUC [A2C A35U A45G U72A] | 0.22
UGGCAGGGUGCCACAGCUGAAGCGUUCACGCCGCAGCCCCUGUCAGAUUCUGGUGAAUCUGCGAAUUCUGCUGUAUAUCUC [A2G A3G G9U A18U U31C] | 0.14
UGACGAGGGGCCACAGCAGAAGCGUACACGCCGCAGCCCUUGUCAGAUUCUGGUGAAUCUGCGAAUUCUGCUGUACAUCUC [A2G A5G G6A U26A U31C C40U U76C] | 0.64
UCACAGGGGGCCACAGCAGAAGCGUUCGCGUCGCAGCCCCUGUCGGAGUCUGGUGAAUCUGCGAAUUCUGCUGUAUAUCUC [A2C A28G A45G U48G] | 0.06
UGACUGGGGGCCACAGCAGAAGCGUCCACGUCGCAGCCCCUGUCAGAUUCUGGUGAAUCUGCGAAUUCUGCUGUAUAUCUC [A2G A5U U26C] | 0.59
UCACAGGGGGCCUCAGCAGAAGCGUUCACGUCGCAGCCCCUGUCAGAUUCUGGUGAAUCUGCGAACUCUGCUGUAUGUCUC [A2C A13U U66C A77G] | 0.39
UGACCGGGGGCCACAGCAGAAGCGUUCACGUCGCAGCCCCUGUCAGAUUCUGGUGAAUCUGCGAAUUCUGCUGUACAUCUC [A2G A5C U76C] | 1.08
UGUCAGGGGGCCACAGCAGCAGCGUUCACGACGCAGCCCCUGUCGGAUUCUGGUGAAUCUGCGAAUUCUGCCGUAUAUCUC [A2G A3U A20C U31A A45G U72C] | 0.08
UGACAGGGGGCCCCCGCAGAUGCGCUCAAGUCGCAGCCCCUGUCAGAUUCUGGUGAAUCCGCGAAUUCUGCUGUAUAUCUC [A2G A13C A15C A21U U25C C29A U60C] | 0.08
UCACAGGGGGCCACAGCAGAAGCGUUCACGUCGCAGCCCCUGUCGGAUUCUGGCGAAUCUGCGAAUUCUGCUGUAUAUCUC [A2C A45G U54C] | 0.8
UGACAGGGGGCCGCAGCAGAAGCGUUCACGUCGCAGCCCCUGUCAGAUUCUGGUGAAUCCGCGAAUUCUGCUGUAUAUCUC [A2G A13G U60C] | 0.55
UCACAGGGGGCCACGGCAGAAGCGUUGACGUCGCAGCCCCUGUCAGAUUCUGGCGAAUCUGCGAAUUCUGCUGUAUAUCCC [A2C A15G C27G U54C U80C] | 0.25

Variant | self-cleavage
UGACUGGGGGCCACAGCAGAAGCGUCCACGUCGCAGCCCCCGUCAGAUUCUGGUGAAUCUGCGAAUUCUGCUGUAUAUCUC [A2G A5U U26C U41C] | 0.19
UCACAGGGGGCCACAGCAGAAGCGCUCCCGUCGCAGCCCCUGUCAGAUUCUGGUGAAUCUGCGAAUUCUGCUGUAUAUCCC [A2C U25C A28C U80C] | 0.09
UCACAGGGGGCCACCGCAGAAGCGUUCCCGUCGCAGCCCCUGUCAGAAUCAGGUGAAUCUGCGAAUUCUGCUGUACAUCUC [A2C A15C A28C U48A U51A U76C] | 0.08
UGACUGGGGGCCACAGCAGAAGCGUUCGCGUCGCAGCCCCUUUCAGAUUCUGGUGAAUCUGCGUAUUCUGCUGUAUAUCUC [A2G A5U A28G G42U A64U] | 0.27
UGACGGGGGGCCACAGCAGAAGCGCUCACGUCGCAGCCCCUGUCAGACUCUGGUGAGUCUGCGAAUUCAGCUGUAUAUCUC [A2G A5G U25C U48C A57G U69A] | 0.3
UGCCAGGGGGCCGCAGCAGAAGCGUUCACGUCGCAGCCCCAGUCAGAUUCUGGUUAACCUGCGAAUUCUGCUGUAUAUCUC [A2G A3C A13G U41A G55U U58C] | 0.07
UGACGGGGGGCCUCAGCAGAAGCGUUCACGUCCCAGCCCCAGUCAGAUUCUGGAGAAUCUGCGAAUUCUGCUGUAUACCUC [A2G A5G A13U G33C U41A U54A U78C] | 0.08
UGACGGGGGGCCACAGCAGAAGCGUUCACGUCGUAGCCCCUGUCAGAUUCUGGUGAAUCUGCGAAUUCUGCUGUAUAUCUC [A2G A5G C34U] | 0.37
UGACUGGGGGCCACGGCAGAAGCGUUCACGUCGCAGCCCCUGCCAGACUCUGGUGAAUCUGCGCAUUCUGCUGCAUAUCUC [A2G A5U A15G U43C U48C A64C U74C] | 0.1
UCACAGGGGGCCACAGCAGAAGCGUUCGCGUCGCAGCCCCCGUCAGAUUCUGGUGAAUCUGCGAAUUCUGCUGUAUGUCUC [A2C A28G U41C A77G] | 0.49
UGACCGGGGGCCACAGCAGAGGCGUUCACGUCGCCGCCCCUGUCGGAUUCUGGUGAAUCCGCGAAUUCUGCUGUAUAUCUC [A2G A5C A21G A35C A45G U60C] | 0.09
UCACAGGAGGCCACAGCAGAAGCGUUCACGUCGCAGCCACUGUCAGAUUCUGGUGAAUCUGCGAAUUCUGCUGUAUAUCUC [A2C G8A C39A] | 0.08
UCACAGGGGGCCACAGCAGAAGCGUUCGCGUCGCAGCCCCUGUCAGAUUCAGGUGAAUCUGGGAGUUCUGCCGUAUAUCUC [A2C A28G U51A C62G A65G U72C] | 0.14
UGGCAGGGGGCCACAGCAGAAGCGUUCACAUCGCAGCCCCUGUCAGAUUCUGGUGAAUCCGCGAAUUCUGCUGUAUAUCUC [A2G A3G G30A U60C] | 0.37
UGGCAGGGGGCCACAGCAGAAGCGUUCACGUCGCAGCCCCUGCCAGAUUCUGGUGAAUCUGCGAAUUCUGCAGUAUGUCUC [A2G A3G U43C U72A A77G] | 0.41
UGACGGGGGGCCACAGCAGAAGCGUUCACGUCGCAGCCCCUGUCGGAUUCUGGUGGAUCUGCGAAUUCUGCUGUAUAUCUC [A2G A5G A45G A56G] | 0.4
UGACAGGGGGCCCCAGCGGAAGCGUUCACGUCGCAGCCCCUGUCAGAUUCUGGUGAAUCUGCGAAUUCUGCUGUAUAUCUC [A2G A13C A18G] | 0.17
